Whole data set: some 33,000 sequences, median “E-score (-0.5 to 0.5)” near -0.056, cut for the highest 2% near 0.38. Some of the results follow.
Target: Stb4 (UniProt P50104)
Experiment: PBM E-score (8-mer binding enrichment) (E-score (-0.5 to 0.5)); higher = stronger / more preferred TF binding; most listed sequences are background and not binding sites
Conditions: protein concentration: 200 nM; construct: GST-DNA-binding domain
In short: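 For each ungapped eight-base word taken together with its reverse complement, the Universal PBM Analysis Suite assigned an E-score. Binding data came from GST-tagged yeast transcription factors, applied at about 100-200 nM, on universal all-10-mer Agilent arrays made double-stranded by primer extension. Fluorescent anti-GST marked bound protein, and scans were normalised with masliner.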

Sequence | PBM E-score
ATAGCCGA | 0.442
AACGCAGT | -0.152
CTAACAGC | 0.0685
CAGCCCTA | -0.0858
AATATATA | 0.122
ATTTGTAA | -0.0728
GGGTTCAC | 0.0402
CATAGACC | -0.0962
ATGCTGTA | -0.00315
GAGTATCC | 0.301
GGGATCTA | 0.0821
GATGGTCC | -0.0294
ACGCAATA | 0.0233
TATGTTGA | -0.195
CCAGGACA | -0.15
GACGTCCA | -0.112
AGTCAAGG | -0.214
ACACTTAC | -0.0158
GCTCGAAC | -0.139
GCGAGGAA | 0.107
GGCTCCAC | -0.128
CTAGAACC | -0.0142
ATCCGCAT | 0.348
AAACTTGT | -0.0579
CGATCTCA | -0.0194

Sequence | PBM E-score
GGGCCGAA | 0.314
CGGTTAGA | 0.348
CCCCGAGG | 0.375
ACATTGCA | -0.0752
ACGTTCTG | -0.0593
AACGCCCG | 0.206
CATGAAGC | 0.0769
AAATAGAC | -0.033
AGAGGTTG | -0.0907
GTACCATA | -0.182
CGTACGTC | -0.0706
AGTTCGCG | -0.047
ATAAAGCG | 0.111
CCGTCCGC | 0.143
GATGAGAA | -0.0842
CAGGGTGC | -0.047
AAGCAACA | -0.107
AACAGAGG | -0.0947
ACTCACAC | 0.147
GTCCAAAC | -0.195
ATGGCACC | -0.0451
AGTTTTAC | -0.0407
CGCGTTGC | 0.0107
CTTGACCA | -0.307
CGGGTGCC | 0.369

Sequence | PBM E-score
GGGGGTCA | -0.107
TGTTTGAA | -0.0497
AGAATTCG | -0.0695
ACGTGGTG | -0.151
GAACCAGA | -0.126
GGCCCCGA | 0.246
CAAGTTCC | 0.19
AGATAGAG | -0.138
ACTGTAAC | -0.216
CAGTTGAA | -0.264
ACGCATCA | -0.0856
AAGTAGCG | -0.161
CGGTCAAG | 0.171
GTATACCA | -0.124
AAACACTA | -0.0978
AAAAGGGA | -0.173
CGGCTAAA | 0.388
GACGCGTC | -0.0901
AACATGCG | -0.116
CCTAACGA | -0.232
AAAAAGAT | -0.0748
AGGAAGTA | 0.112
CTCCCCGC | 0.215
AGGATGCG | -0.0756
GTTCCGTA | 0.314

Sequence | PBM E-score
ACTAGAAG | -0.102
CGTAGAGA | -0.293
CTCGCCGC | 0.0149
AACCCGAG | 0.406
GGTCCCTA | -0.115
CGATATAC | 0.0593
CTGTCGTA | -0.158
GCCCTCAA | -0.0883
ACCGGAGA | 0.187
CCGAAGAC | 0.374
CGCGTTGA | -0.0508
ATCCAGGC | -0.257
CTCTAGCC | 0.0112
GGAAGCCC | 0.272
ACCTTTAT | -0.156
CTGGGTTC | 0.0654
AGGAGACA | -0.0517
GTAAGAGA | -0.241
GCGTACCC | 0.197
CAATTCGC | 0.0284
GGCGGAGA | 0.196
GCATCGGC | 0.277
GTAGGTTA | -0.0692
GTCTAAGA | -0.0862
GTTTTACA | -0.126

Sequence | PBM E-score
CTCTATTC | 0.0692
GTAATGAC | -0.00934
ATCCACGC | -0.188
ACGTGCTA | -0.212
CACTGCGA | -0.102
CTTCTCAA | -0.176
ACAGACCT | 0.00106
GATCTACA | -0.112
AAAATTCA | 0.0549
CAAAGGTC | -0.194
ACGGTTGA | -0.0317
AGTACCCG | 0.374
AATCGGAT | 0.424
CCAGTCGA | -0.124
AGTCTTCG | -0.008
GGGAACGA | 0.0562
CCCTGTCA | -0.217
AATGCAAT | -0.269
GGTTGTTA | 0.1
CGAACCAG | 0.0364
TCTACCAA | -0.212
ACCCTGGA | -0.0928
AGGGCAGA | -0.385
ATCGAGCG | -0.0388
CTTACGGA | 0.228

Sequence | PBM E-score
CGGAGAAG | 0.141
CCCACAAA | -0.0724
AAATAGTG | -0.0693
AGTAAGAT | -0.0775
AACTCTCA | -0.188
CTCCTGGC | -0.113
GACTGGAA | -0.105
CAGTGGGA | -0.0824
CATCAAAC | -0.176
GGGTTGGA | 0.00594
ACGCCCAA | -0.0756
CGGCTGGA | 0.207
AGTAATAC | 0.00139
AGTGAATA | -0.0875
GGCGCAAC | -0.207
AAAGTAAC | -0.0491
ACCTCTAG | -0.142
AGGCGCCC | -0.207
CGACAGTA | 0.00744
ATATTGCC | 0.177
AACACACC | 0.089
AGTACATC | -0.157
ACAAAGTA | -0.0971
CATTGCGC | -0.0387
AATTCCCT | -0.131

Sequence | PBM E-score
GGCACCAC | 0.133
TAAGTATA | 0.0522
GCGAGTAA | -0.0189
TCCCCAGA | -0.35
ATAGACCA | -0.109
ATCACCGA | 0.287
TCAGAACA | -0.157
GCTGTCAA | -0.0775
AAGGAAGG | -0.18
CACTAGTC | -0.154
GTGCACTA | 0.00179
ACCAGTGC | -0.227
CGGTAAGA | 0.271
AAGTGAGT | -0.139
CCCACGGG | 0.128
AACTGTGC | -0.157
CAAGCTCC | 0.0378
ATTTGAAC | 0.124
ATAAATCC | 0.151
AACAAAGT | 0.00095
CCCGATTC | 0.274
ACACTGAC | -0.0283

Source: the supplement of paper PMC3334620
